Measurements from the supplement of paper PMC11417369.
The other results are listed elsewhere or left out.

Tested on: PF3D7_0420300 AP2 domain 1 (GST-tagged)
Assay: gcPBM binding intensity (ln(normalized median fluorescence intensity)); higher = stronger DNA binding
Procedure, shortened: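 An Agilent 4 × 180k array carrying primer-extended double-stranded 36-bp intergenic genomic probes and negative controls received GST-tagged P. falciparum DNA-binding domains expressed in E. coli, about 25 μg on average, for 1 h. The binding buffer contained 1× PBS, 1% milk, 0.2 mg/ml BSA, 0.5% salmon testes DNA and 0.03% Triton X-100. Binding intensity is the top Masliner-normalised natural-log median intensity across replicate spots of either probe orientation, read after Alexa488 anti-GST antibody staining and a 488 nm scan.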

| Sequence | gcPBM binding intensity (ln) |
| --- | --- |
| GATATTCATTATATATGTACATATATGTAATATATA [XGTACX_site2210] | 9.2 |
| TATATATATCTGTATACACACATACAAATATGTAAA [CACACA_site5950] | 9.39 |
| TATTAAAGCACCCATGCACACACACTAAGGAAAAGA [CACACA_site7961] | 10 |
| ATATATTTTTTTTTTTCACACATTAGGATTCATATA [CACACA_site5758] | 9.39 |
| ATCATATGTATGGTGGTGCATTATGCATGAATTTTA [GTGCAC_site9798] | 9.2 |
| TAATAATATATAAAAAGTACATAACAAGATATGAAA [XGTACX_site4921] | 9.45 |
| GAGAGGTATCAAAAATGTACACATATATATATGTAT [XGTACX_site5611] | 9.2 |
| TTTTTTCTTTATTATGGTACGTATAAAAAAATTATA [XGTACX_site3433] | 9.02 |
| ATATATAATATATATTGTACAGGTATGTCTATAAAT [XGTACX_site2243] | 9.37 |
| TTTTTATCAACAAATAATACCATAACTCATATTTAT [CACACA_negctrl_site740] | 9.1 |
| ATTATTCCATATTATTGTACTTTAATTTTTTAAACC [XGTACX_site2960] | 9.29 |
| TATAAAATTTTTAAAAGTACATATTTTACATAATAC [XGTACX_site2193] | 9.1 |
| ACTAATAAAGGTGTAATACACACTATAAAAAGGAAT [CACACA_site1124] | 9.61 |
| AAAATGTTATTGGAAAGTACAAAAAAAATTATATAA [XGTACX_site4074] | 9.23 |
| TTAATATATATATATATATATATATTTTTATTTTTT [CACACA_negctrl_site763] | 9 |
| TGTATTAACAAAAAGGTGCGGATATATATAAAAAAT [GTGCAC_site9473] | 9.61 |
| ATAAAACGTACAATGGTGCATATAAATAATATATAT [GTGCAC_site9960] | 9.47 |
| CATATATAGATATATACACACATATATAAATAAATA [CACACA_site6759] | 9.64 |
| TATGTATATTCTTTCAGTACACATAATGTTGTCATA [XGTACX_site8845] | 9.27 |
| TTATATATATATATATATATATATATATATATAAAT [GTGCAC_negctrl_site126] | 8.83 |
| CATTATGTACAAAAAGTGCAATATATATTAACACTG | 9.16 |
| AACAAAATAAGAAAACGTACAAATGTTTCAAATTCT [XGTACX_site1544] | 9.38 |

| Sequence | gcPBM binding intensity (ln) |
| --- | --- |
| TTTTCAAAGATATATACACACATGCATATTACGGTG [CACACA_site6505] | 9.43 |
| TTAATAAATATCAATACACACACACTAATGTGAATA [CACACA_site9254] | 9.83 |
| TTTTTGAGTGCACATACACACAGACATACATTTAAA [CACACA_site5813] | 9.48 |
| GGATTCAAAAAAAAAAATAAAAGTAAATAATAAATA [TGCATGCA_negctrl_site348] | 9.19 |
| TAAATATATTTATACACACACACCAAAGCAATAGAT [CACACA_site7393] | 10.3 |
| TTCAATATACATATGTGTACTAAAATAAATAGAAAA [XGTACX_site5708] | 9.35 |
| ATTACAACATTTTATACACACGTGATTATTAATTTT [CACACA_site5581] | 9.56 |
| TTTATGAAGTAAAAATATAAATTCACAAAGTTAAAA [CACACA_negctrl_site1476] | 9.03 |
| AAGAACAGAACGTACACACACATATTTATATTTATA [CACACA_site7594] | 9.82 |
| TATATTTCAGGGGGGAGTACAAATTTTTTTATATAA [XGTACX_site1600] | 10.1 |
| ATTTGTAATATTAAATGTACAGGTAAGAAATATCAG [XGTACX_site1562] | 9.32 |
| TAAGGAAAAAAAATATGTACTTATAGTTCCTTCTTT [XGTACX_site2202] | 9.08 |
| TTATAAATGAATAAATGTACAAAATATATATATATA [XGTACX_site8829] | 9.22 |
| CATAACATAAAATAGGTGCACAAAAATTGTAATTGA | 9.58 |
| TTCAGTGTATACATATGTACATATATATATATATAT [XGTACX_site1621] | 9.26 |
| ATTTTTATTTGTTACGCATGCATAAAAGTGCATACT [TGCATGCA_site547] | 9.27 |
| TTGTAATATATGTATTGTACGCATATAACAATTATT [XGTACX_site3652] | 9.16 |
| AAAATACATAAATGTTCACACATTAAAAAGCAGAAG [CACACA_site5346] | 9.47 |
| TATGTCAGATGAAAGGGTACATAATATAATATATTT [XGTACX_site8062] | 9.08 |
| TTTATAAAGAAACACACACACATGTGAACATAAAAA [CACACA_site1908] | 9.92 |
| GTGTAAATAAGGATATATAACAATCAACAAAACATA [CACACA_negctrl_site1759] | 9.61 |
| TGTATGAAATATATTACACACATATATAATATATAT [CACACA_site793] | 9.44 |

| Sequence | gcPBM binding intensity (ln) |
| --- | --- |
| ATATTTTTCAAACATCGTACATTATGAGTTAAAATT [XGTACX_site584] | 9.1 |
| ATACACAAAATTATTAAATCAATAAATATATGGTTT [CACACA_negctrl_site353] | 9.28 |
| CATTAATATATATATACATGCACGTTTTAAAAAAAA [TGCATGCA_site875] | 9.12 |
| TAATTATGCAGACACACACACACACGCAACTAAAAA [CACACA_site7253] | 10.1 |
| ATGGGAATATAATTATGTACATATAAAAATTATAAA [XGTACX_site5336] | 9.21 |
| TCATTTCACGGACACACACACACAATATATTTCCTT [CACACA_site6023] | 10.2 |
| AAAAAATATTTTTACAGTACATATATATAAAATGTT [XGTACX_site3215] | 9.19 |
| TAACAAAGGAAAGATATACACACGTATGCATGATAA [CACACA_site2520] | 9.68 |
| TTTTTATTACATAATTAAAAAAAATAATAAAATAAA [XGTACX_negctrl_site249] | 8.79 |
| ATATATATATATTTATGTACTTAATAATTTATTCAC [XGTACX_site7301] | 9.2 |
| TTTTTTTTTTAATTCGCACACTGTCTTCATACAATT [CACACA_site1379] | 9.49 |
| TGCAGTCTGGAGAAAAGTACATAGTATCTGGTAACC [XGTACX_site2019] | 9.11 |
| TACATACATACATACACACACACATATATATACATA [CACACA_site853] | 10.1 |
| ATATCATTAAAAGGATGTACATATGTGTATACAATA [XGTACX_site871] | 9.34 |
| TAAAAAATATAAACTGCACACACAAAAAAAAAAGAG [CACACA_site8379] | 10.2 |
| AATTTAAAATAATATTGTACTTAGATATAAATATGA [XGTACX_site4198] | 9.01 |
| ATGGTACACAAATATACATGCAATAATAAAAAAAAA [TGCATGCA_site879] | 9.26 |
| ATAATAATATATATTACACACGCATCGTTCATTTAT [CACACA_site8752] | 9.62 |
| ATTAATATATATGGATGTACTTATGTATGTATGCAT [XGTACX_site2263] | 9.39 |
| GGAAAAACCATTCGCACACACACATAATATATAATA [CACACA_site1424] | 9.85 |
| CATGTATAATATAATACACACTATATAATATACACC [CACACA_site5267] | 9.59 |
| TATTTATATGGACACACACACATATAAATAAATAAA [CACACA_site6346] | 9.93 |

| Sequence | gcPBM binding intensity (ln) |
| --- | --- |
| TCTTACTAATATCGCACACACATATGTAGACGGGAT [CACACA_site87] | 9.62 |
| TATTGACAAAATAGCTGTACAAATTAAAAGAAATAA [XGTACX_site4415] | 9.23 |
| ATGGCCATAATATAGACACACATATATAAATATATA [CACACA_site2230] | 9.28 |
| CGATATGTTCAATATTGTACTATTTATAATAATATG [XGTACX_site3051] | 9.09 |
| CTTAAAAAAAAAAAATGTACACATAAAAAAAATACA [XGTACX_site6700] | 9.43 |
| TTATTGTCTTCTCATATACACACTTTTATGACTATC [CACACA_site3142] | 9.57 |
| TTTAATTGATAATGAAGACAATTATATGCATCCAAA [TGCATGCA_negctrl_site138] | 9.01 |
| TAAATAAGGAAGGAAACACACATTAAAAAATAAATA [CACACA_site618] | 9.63 |
| AACAGAAGCACATACACACACTCAAAAAAAAAAAAA [CACACA_site5652] | 9.57 |
| TTTTTAAATTATTTGAAAAAAAGAAAATTATAAACA [CACACA_negctrl_site1599] | 8.72 |
| ATTTTATTCTAAAAAGGTACACATATTATTTTATGA [XGTACX_site7233] | 8.89 |
| TATATTTTCTATAGGTGTACTCCACATGCGGTGTTA [XGTACX_site7471] | 9.08 |
| ATATTGATACATCCAATACACACTACATATAATGAT [CACACA_site1874] | 9.54 |
| AAACATCTTTACAACGTCCCTCCTTTTTTATGTACC [GTGCAC_negctrl_site528] | 9.47 |
| AATATATATAAATATTGTACAAAAATATATATATAT [XGTACX_site2910] | 9.26 |
| TCCCTCTTTTTATTCTCACACACGTTTATATATAAA [CACACA_site1644] | 9.76 |
| ATATATGATGTAAAAGCACACATATATATATATATA [CACACA_site9330] | 9.21 |
| TATATAAACATATAAACATGCAATATATATATGTTA [TGCATGCA_site765] | 9.34 |
| GGAAAAAAACTTATGAGTACACATAAATATAGCACA [XGTACX_site6686] | 9.29 |
| AAAAATATATAACAAAGTACATATATATTTAGTAAT [XGTACX_site8791] | 9.32 |
| AAAAAAATTAAATCAAGTACTCATTCTTAAATTATA [XGTACX_site1274] | 8.99 |
| AAATTAAAAAGACATTCACACATTTTCATCTTAACA [CACACA_site5221] | 9.18 |
